# From PubChem BioAssay AID2546 (National Center for Advancing Translational Sciences (NCATS), 2010)
# The whole screen tested about 310,000 compounds, of which about 11,000 (3.5%) were called active. Inconclusive results, whose numbers are uncertain, are shown with a selection of clear calls. The call rests on the fitted dose curve; in most records, active means well fitted inhibition curve with a large enough effect; inconclusive means small, poorly fitted or top-dose-only effect, or effect the other way; inactive means flat fitted curve, though single readings scatter. Potencies of inconclusive entries are left out as doubtful fits.
# Assay: VP16 counterscreen qHTS for inhibitors of ROR gamma transcriptional activity;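 further: Gal4-VP16 expression switched on by copper sulfate through the metallothionein promoter; nearly all actives have a fitted effect of over 50% in size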
# Conditions: Drosophila S2 Gal4-VP16 UAS-luciferase, luminescence, 20 h; series mostly up to 53.6 µM
# Potency means the concentration at half of the fitted maximal effect; tags describe the fitted curve by direction and shape.
row,SMILES,Potency
1,Cc1ccccc1CSc1nc2c(c(=O)[nH]1)CCCC2,"inconclusive [inhibitor, partial curve, poor fit]"
2,COc1ccccc1N1CCN(C2CCCN(C(=O)c3snnc3C)C2)CC1 (stereo not given),inactive
3,COc1ccccc1/C=C/C=N/NC(=O)c1ccncc1,active: 11.2 µM
4,COC(=O)COc1ccc(S(=O)(=O)Nc2cc(OC)ccc2OC)cc1,active: 25.1 µM
5,O=C(CN1CCN(CC(=O)Nc2ccccc2F)CC1)Nc1cccc(F)c1,inactive
6,CC(=O)NNC(=O)c1[nH]c2ccc(Br)cc2c1-c1ccccc1,inactive
7,COc1cc(NC(=S)Nc2cccnc2)cc(OC)c1,"inconclusive [inhibitor, single point]"
8,COCCNc1nc(-n2nc(C)cc2C)nc2sc3c(c12)CCCC3,active: 3.16 µM
9,O=C(Cc1ccccc1)Nc1ccc(S(=O)(=O)N2CCCC2)cc1,"inconclusive [inhibitor, single point]"
10,CCOc1ccc(NC(=O)C2CCCN(S(=O)(=O)c3ccc4[nH]c(=O)ccc4c3)C2)cc1 (stereo not given),"inconclusive [inhibitor, single point]"
11,O=c1oc2ccccc2c(O)c1/C=C1\C=Nc2ccccc21,"inconclusive [inhibitor, single point]"
12,N#CC1=C(N)C(C#N)(C#N)[C@H](c2cccnc2)[C@H]2CN(C(=O)OCc3ccccc3)CC=C12,"inconclusive [inhibitor, single point]"
13,CN(Cc1ccccc1)S(=O)(=O)c1ccc(NC(=S)NC(=O)C(C)(C)C)cc1,"inconclusive [inhibitor, single point]"
14,Nc1c(-c2cccc([N+](=O)[O-])c2)nc2ccccn12,inactive
15,C=CCn1c(SCC(=O)c2ccc(Cl)cc2)nnc1-c1ccc2c(c1)OCO2,"inconclusive [inhibitor, single point]"
16,CCc1nnc(NC(=O)c2cccnc2)s1,"inconclusive [activator, single point]"
17,CCOC(=O)CNCCC(=O)c1ccc(Br)cc1,"inconclusive [inhibitor, single point]"
18,Cn1c(=O)c2c(nc(CN3CCN(c4ccccc4)CC3)n2Cc2ccccc2F)n(C)c1=O,"inconclusive [inhibitor, single point]"
19,COCCNC(=O)C(c1ccc(C)o1)N(C(=O)c1snc(C(N)=O)c1N)c1ccc(C)c(C)c1 (stereo not given),inactive
20,Cc1ccc(S(=O)(=O)CCC(=O)c2cccc([N+](=O)[O-])c2)cc1,active: 5.01 µM
